From PubChem BioAssay AID624418 (National Center for Advancing Translational Sciences (NCATS), 2012)
Values joined by “and” are separate entries in the source; they are usually repeats but may differ in a detail not shown here. Identical values can stand only once. In all, about 410,000 compounds went through this assay and about 530 (0.13%) were called active. This list was built around the results that the source calls inconclusive (neither active nor inactive); the mix of calls is not that of the screen. The call rests on the fitted dose curve; in most records, active means well fitted inhibition curve with a large enough effect; inconclusive means small, poorly fitted or top-dose-only effect, or another doubt; inactive means no such curve, though single readings can be large or run the other way. Where the call is inconclusive, the potency comes from a doubtful curve fit.

Assay: qHTS of GLP-1 Receptor Inverse Agonists: Cytotox Screen
Conditions: HEK293 cAMP-luciferase reporter cells, luminescence, 24 h; activity change, negative = inhibition: at 38.3 µM (top of the series) unless noted
How it was run: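 MLSMR compounds, 24 hr on cells at 37 deg C/5% CO2; luminescence after luciferase reagent (12 min RT). Inhibition counted as the undesired cytotoxic outcome.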
On the % scale 0 is the no-effect control and ±100 the full control effect; potency means the concentration at half of the fitted maximal effect.

Compound | Potency | activity change, negative = inhibition
CCN(CC)c1nc(NN)nc(Nc2ccc(C)c(Cl)c2)n1 | inconclusive: 10 µM [inhibitor, partial curve, poor fit] | 
Cc1ccccc1NCc1ccc(O)c2ncccc12 | inconclusive: 28.2 µM [inhibitor, single point] | 
O=C(Nc1ccccc1)C(=O)Nc1ccccn1 |  | inactive: 0.544%
COc1cccc(C(=O)COC(=O)c2cc(-c3cccs3)nc3ccccc23)c1 |  | inactive: -2.82%
COc1ccc(N(C(=O)c2snc(C(N)=O)c2N)C(C(=O)NC2CCCC2)c2ccco2)c(OC)c1 (configuration not stated) | inconclusive: 14.1 µM [inhibitor, single point] | 
O=[N+]([O-])c1ccc(-c2nc(-c3cccs3)c(-c3cccs3)[nH]2)cc1 | inconclusive: 28.2 µM [inhibitor, single point] | 
CCOc1ccc(C(=O)NC2C(=O)N3C(C(=O)O)=C(COC(C)=O)CSC23)cc1OCC (configuration not stated) | inconclusive: 28.2 µM [inhibitor, single point] | 
Cc1cc(C)nc(-n2nc(C)c3c2N(Cc2ccccc2C)C(=O)CC3c2ccc(Cl)cc2)n1 (configuration not stated) |  | inactive: 19.2%
CCc1ccc2ncc(S(=O)(=O)c3ccc(C)c(C)c3)c(N3CCCC3)c2c1 | inconclusive: 10 µM [inhibitor, partial curve, poor fit] | 
CN(C(=O)c1cc(-c2ccc3c(c2)OCO3)on1)c1ccccc1 | inconclusive: 2 µM [inhibitor, partial curve, poor fit] | 
O=C(CCCSc1nnnn1-c1cccc2ccccc12)c1ccc(F)cc1 |  | inactive: -5.2%
CN1CCc2cccc3c2[C@H]1Cc1ccc(O)c(O)c1-3 | inactive and inconclusive: 11.2 µM [inhibitor, single point] and inconclusive: 12.6 µM [inhibitor, single point] | 
Cc1c(C)n(CC(O)CN2CCCCCC2)c2ccccc12 (configuration not stated) | inconclusive: 28.2 µM [inhibitor, single point] | 
COc1ccccc1-c1nc2c(c(SCc3cc(C)ccc3C)n1)Cc1c(CO)cnc(C)c1O2 |  | inactive: -10.3%
COc1cc(-n2nc(C)c3c2OC(N)=C(C#N)C3c2ccccc2)c(Cl)c(Br)c1O (configuration not stated) | inconclusive: 10 µM [inhibitor, partial curve] | 
COc1cc(/C=C2\SC(=Nc3ccc(O)cc3)NC2=O)cc(OC)c1O | inconclusive: 10 µM [inhibitor, single point] | 
CC(C)C1CC(CCNCc2ccc(N(C)C)cc2)(c2ccccc2)CCO1 (configuration not stated) | inconclusive: 11.2 µM [inhibitor, partial curve, poor fit] | 
O=C(NCc1cccs1)C1CC(c2ccc(Cl)c(Cl)c2)=NO1 (configuration not stated) | inconclusive: 3.55 µM [inhibitor, full curve, poor fit] | 
CCOC(=O)c1nc(Nc2ccc(Nc3ccccc3)cc2)c2ccccc2n1 | inconclusive: 31.6 µM [inhibitor, single point] | 
COc1ccccc1/C=C/c1onc(C)c1S(=O)(=O)N1CCC(C(=O)N2CCC(C)CC2)CC1 |  | inactive: -9.29%
CCc1nnc(NC(=O)CSc2nc3c([nH]c4ccccc43)c(=O)n2-c2ccc(F)cc2)s1 |  | inactive: 1.56%
COc1cc(/C=C(\C#N)c2nc3ccccc3s2)cc([N+](=O)[O-])c1O | inconclusive: 11.2 µM [inhibitor, single point] | 
CC1C/C(=N\NC(=S)NC(C)C)CC(C)(C)C1 (configuration not stated) | inconclusive: 4.47 µM [inhibitor, full curve, poor fit] | 

Compound | Potency | activity change, negative = inhibition
COc1cccc(NC(=O)Cn2c(=O)n(-c3ccccc3)c(=O)c3ccc(C(=O)NCc4ccc5c(c4)OCO5)cc32)c1 |  | inactive: 2.9%
CNC(=O)CC1C(=O)N(c2ccc(Cl)cc2)C(=S)N1CCc1ccc(OC)c(OC)c1 (configuration not stated) | inconclusive: 28.2 µM [inhibitor, single point] | 
Cc1nn(Cc2ccc(Cl)cc2)c(C)c1NC(=O)c1cc(-c2ccco2)on1 | inconclusive: 8.91 µM [inhibitor, single point] | 
CCc1ccc(/C=N/NC(=S)NCCc2ccccc2)cc1 | inconclusive: 15.8 µM [inhibitor, single point] | 
CCc1cccc2c(-c3csc(=NC)n3C)c[nH]c12 | inconclusive: 10 µM [inhibitor, single point] | 
CCOC(=O)C1CCN(CC(O)COc2ccc(C(C)(C)CC)cc2)CC1 (configuration not stated) | inconclusive: 28.2 µM [inhibitor, single point] | 
CCCc1c(C(=O)OCC)sc(N)c1C#N |  | inactive: 1.69%
COc1ccc(-c2nc(=S)c3c(n2Cc2cccnc2)CC(C)(C)OC3)cc1 | inconclusive: 28.2 µM [inhibitor, single point] | 
O=C(Nc1ccccc1N1CCCCC1)c1cnccn1 |  | inactive: -3.69%
c1ccc(CN2CCN(C(c3ccccc3)c3ccccc3)CC2)cc1 | inconclusive: 3.98 µM [inhibitor, single point] | 
CCOC(=O)c1c(NC(=O)c2ccn(CC)n2)sc2c1CCCC2 |  | inactive: 1.23%
CCCCNc1ncnc2sc3c(c12)CCN(CCC)C3 | inconclusive: 14.1 µM [inhibitor, single point] | 
COc1ccc(CCNC(=O)c2ccc3c(c2)N(Cc2cccc(Cl)c2)C(=O)c2ccccc2S3=O)cc1OC (configuration not stated) |  | inactive: 0.0585%
COc1ccc(C(=O)c2c3ccc(C(F)(F)F)cc3[n+]([O-])n2CCCC(N)=O)cc1 | inconclusive: 11.2 µM [inhibitor, single point] | 
CCOC(=O)C1(C(=O)OCC)COC(=O)C1CN1Cc2cc3ccccc3nc2C1 (configuration not stated) |  | inactive: -31.4%
COC(=O)c1c(NC(=O)c2ccccc2)sc(Cc2ccccc2)c1C |  | inactive: -5.65%
C(=N\Nc1nncc2ccccc12)/c1ccccn1 | inconclusive: 3.55 µM [inhibitor, full curve, poor fit] | 
S=C(NCc1ccccc1)N/N=C/c1cccs1 | inconclusive: 3.55 µM [inhibitor, full curve, poor fit] | 
Cc1nn(Cc2ccc(F)cc2)c(C)c1NC(=O)C1c2ccccc2Oc2ccccc21 | inconclusive: 28.2 µM [inhibitor, single point] | 
CC(=O)c1cccc(NC(=O)CCCSc2nc(-c3ccco3)cc(C(F)(F)F)n2)c1 |  | inactive: -1.09%
Cc1c(C(=O)N2CCN(c3ccc(F)cc3)CC2)sc2ncnc(N3CCN(c4ccccn4)CC3)c12 | inconclusive: 20 µM [inhibitor, single point] | 
Cc1ccc(/C=N/n2c(-c3ccccc3)n[nH]c2=S)cc1 | inconclusive: 8.91 µM [inhibitor, partial curve, poor fit] | 
c1cnc2c(c1)ccc1cccnc12 | inconclusive: 5.62 µM [inhibitor, full curve, poor fit] | 

Compound | Potency | activity change, negative = inhibition
CC[n+]1ccccc1/C=C/c1ccc(N(C)C)cc1 | inconclusive: 28.2 µM [inhibitor, single point] | 
C[C@@H]1CN([C@@H](C)CO)C(=O)c2c(c3ccccc3n2C)-c2ccccc2CO[C@H]1CN(C)C(=O)[C@H](C)c1ccccc1 |  | inactive: -11.1%
O=C(CCn1nc(-c2ccccc2)c2ccccc2c1=O)Nc1cccnc1 |  | inactive: -1.83%
Cc1ccc(S(=O)(=O)N2[C@@H](c3ccccc3F)C(C(=O)O)=CC[C@H]2c2cccc(C)c2)cc1 | inconclusive: 28.2 µM [inhibitor, single point] | 
O=C(Nc1ccccc1N1CCN(C(=O)c2ccc(Cl)cc2)CC1)c1cc(Br)ccc1Cl |  | inactive: 5.15%
CCCN(C(=O)COC(=O)c1cc(CC)c(C)s1)c1c(N)n(Cc2ccccc2)c(=O)[nH]c1=O | inconclusive: 28.2 µM [inhibitor, single point] | 
COc1ccccc1N=Nc1nc(-c2ccccc2)c(-c2ccccc2)[nH]1 | inconclusive: 10 µM [inhibitor, partial curve, poor fit] | 
CC1=C(C(=O)N(C(C)C)C(C)C)CC(CC(=O)NC2CCCCC2)C(=O)N1Cc1ccc(C(C)(C)C)cc1 (configuration not stated) | inconclusive: 14.1 µM [inhibitor, single point] | 
CCOc1ccc(Br)cc1/C=N/O |  | inactive: 10.3%
CCCn1c(=O)c2ccccc2n2c(=S)[nH]nc12 |  | inactive: -4.49%
COC(=O)c1ccc(NC(=S)NC2CC3CCC2C3)cc1 (configuration not stated) | inconclusive: 20 µM [inhibitor, single point] | 
COc1ccc(CNCCS(=O)(=O)NC2CCCC2)cc1 |  | inactive: -6.27%
CCCCCCC(O)(c1ccc(OC)cc1)C(CN1CCOCC1)c1ccccc1 (configuration not stated) | inconclusive: 11.2 µM [inhibitor, partial curve] | 
CC(C)Oc1ccccc1C1CC(=O)Nc2cc3c(cc21)OCO3 (configuration not stated) |  | inactive: -30.6%
CCn1ccnc1CN(C)Cc1cn(-c2cccc(C)c2)nc1-c1cccc(F)c1 | inconclusive: 10 µM [inhibitor, single point] | 
CCOC(=O)C1CCCN(S(=O)(=O)c2ccc3ccccc3c2)C1 (configuration not stated) | inconclusive: 10 µM [inhibitor, single point] | 
CCN(CC)c1nc(-c2ccccn2)nc(-c2ccccc2)c1C#N | inconclusive: 2.51 µM [inhibitor, full curve] | 
NC(N)=N/N=C/c1ccc2cccc(OCc3ccccc3)c2n1 | inconclusive: 28.2 µM [inhibitor, single point] | 
O=C(CCCc1ccccc1)Nc1ccnn1C1CCN(Cc2ccccc2)CC1 |  | inactive: 2.43%
C/C(=N\Nc1nc2ccccc2[nH]1)c1ccc(N2CCOCC2)cc1 | inconclusive: 20 µM [inhibitor, single point] | 
CCOC(=O)c1ccc(NC(=O)CCC(=O)N2CCSc3ccccc32)cc1 | inconclusive: 14.1 µM [inhibitor, partial curve, poor fit] | 
